The values that follow come from PubChem BioAssay AID1240 (Sanford-Burnham Center for Chemical Genomics, 2008).

The whole screen tested about 50,000 compounds, of which about 800 (1.6%) showed an effect of 50% or more. Some of the results follow.

The assay deals with Bcl-2-like protein 10 (Homo sapiens) (UniProt Q9HD36). Description: TR3 peptide-Bcl-B binding displacers, biochemical primary FP assay, phenotype converters (AID 1240).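 Further: 0% = Bcl-B with tracer peptide and DMSO and 100% = tracer peptide lacking Bcl-B.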 The note with it: GST-Bcl-B / FITC-TR3 peptide fluorescence polarization; stronger effect = higher value; compound at 3.75 mg/L. In general terms: Polarisation of emitted light reports the rotation of a fluorescent probe.
Sequence of UniProt Q9HD36 (Q9HD36 whole entry, looked up): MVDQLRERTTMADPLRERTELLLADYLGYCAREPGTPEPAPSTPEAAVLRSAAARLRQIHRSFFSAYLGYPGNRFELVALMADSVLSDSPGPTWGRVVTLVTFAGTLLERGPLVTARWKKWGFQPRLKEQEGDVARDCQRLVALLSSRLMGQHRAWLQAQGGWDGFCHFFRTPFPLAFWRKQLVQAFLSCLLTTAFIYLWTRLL
Consider `CCOc1cc(/C=N/n2cnnc2)ccc1OCc1cccc2ccccc12`, for which the displacement is -2.6%. For `CSc1ccc(/C=N/NC(=O)c2cc(-c3ccccc3)n[nH]2)cc1`, the displacement was 7.5%. For the molecule `CCOC(=O)CNC(=O)c1ccc(-c2ccccc2)cc1`, the displacement was -10.9%. Then `COCCN1C(=O)/C(=C\c2ccc(SC)cc2)C(C(=O)OC)=C1C`, with -38.9%. With `Cc1ccc(C)c(N(CC(N)=O)S(=O)(=O)c2ccccc2)c1`, the displacement was -5.5%. Then `O=C(N/C(=C/c1ccc([N+](=O)[O-])cc1)c1nc2ccccc2[nH]1)c1ccccc1`, with 15.4%. Next, `Fc1ccc(NC(=S)NCC(c2ccccc2)c2ccccc2)cc1`: -10.6%; `N#C/C(=N/Nc1ccccc1F)C(=N)N1CCOCC1`: 8.4%; `CC(NC(=O)C(NC(=O)OCc1ccccc1)C(C)C)C(=O)OCc1ccc([N+](=O)[O-])cc1` (stereo unspecified): -18%. Then `COc1c(Cl)ccc(Cl)c1C(=O)Nc1sc2c(c1C(N)=O)CCCC2`, with -4.2%; and `CSc1nc(C)cc(-n2ccc(=O)[nH]c2=O)n1`, with 2.5%; and `Cc1cc(OCC(=O)Nc2ccc(I)cc2Cl)ccc1Cl`, with 42.6%.

With `CCC(C)c1ccc(NC(=O)CCc2ccccc2)cc1` (stereo unspecified), the displacement was -7.7%.

As to `CCOc1ccc(Cc2c(C)[nH]c3c(Br)cccc3c2=O)cc1`, the displacement stood at 3.2%. Next, `O=C(Nc1ccc2c(c1)OCO2)c1ccccc1[N+](=O)[O-]`: -5.9%; `c1ccc(Nc2nc(-c3ccccn3)cs2)nc1`: -20.6%; `Cc1ccc(Cl)c(OCCCCN2CCCC2)c1`: -4%. Then `COc1cc([N+](=O)[O-])ccc1NC(=O)COc1ccccc1C(C)(C)C`, with 38.1%. On to `Cc1ccccc1OCC(=O)N1N=C(c2ccc(F)cc2)CC1(O)C(F)(F)F` (stereo unspecified), for which the displacement was -4.5%.

Turning to `O=[N+]([O-])c1ccc(N2CCN(CCO)CC2)cc1NC(c1ccccc1)c1ccccc1`, the displacement worked out at 8.3%.

`COc1cc(CN2CCN(Cc3cc(OC)c(OC)c(OC)c3)CC2)cc(OC)c1O`: the displacement is -2.4%. Then `c1ccc(-n2nnnc2SCc2nn[nH]n2)cc1`, with 6.4%; and `O=C(Nc1cccc2ccccc12)c1ccc(CN2CCc3ccccc3C2)cc1`, with -18.6%. Next, `C=CCc1cccc(/C=N/N2CCN(c3ccc(Cl)cc3)CC2)c1O`: -8.1%; `CCCCn1c(=N)n(CC(=O)c2cccs2)c2ccccc21`: 2.7%; `COc1ccc2c(c1)OCC/C2=N/OC(=O)c1cccc(F)c1`: -7.8%. Next, `COc1ccc(-c2cc(C(=O)Nc3ccccc3Br)c3ccccc3n2)cc1`: 4.7%; `CC1=C(C(=O)Nc2ccccc2)C2(CCCCC2)C(C#N)=C(SCC(=O)Nc2ccc(Br)cc2)N1`: -6.8%. For `Cc1ccc(N2C(=O)/C(=C/c3cccc(Br)c3)SC2=S)cc1C`, the displacement worked out at 14.7%.

With `O=C(NCc1ccccn1)c1ccc([N+](=O)[O-])cc1`, the displacement was 7.9%. On to `CC(=O)O/N=C(/c1ccc([N+](=O)[O-])cc1)N1CCOCC1`, for which the displacement is -6.6%. Next, `CCOc1ccc(N2C(=O)CC(N3CCCCC3)C2=O)cc1` (stereo unspecified): -6.7%; `CC(C)c1ccc(/C=C2\SC(=S)N(Cc3ccccc3)C2=O)cc1`: 2.6%; `Cc1cc(N2C(=O)NC(=O)/C(=C\c3ccc4c(c3)OCO4)C2=O)ccc1Br`: -15.5%. Next, `COc1ccc(Cl)cc1NC(=O)CN(c1ccc(C)cc1)S(=O)(=O)c1ccc(OC)c(OC)c1`: 12.2%; `O=[N+]([O-])c1ccc2nc3c([nH]c4ccccc43)c(N3CCOCC3)c2c1`: -5.5%.

For the molecule `COC(=O)C1=C(C)NC(=S)NC1c1ccc(OCC(=O)N2CCCCC2)c(OC)c1` (stereo unspecified), the displacement is -7.6%. Next, `O=C(Nc1cc([N+](=O)[O-])ccc1F)c1ccccc1`: 15.6%; `COc1ccc(C)cc1NC(=O)c1cc(Cl)ccc1OC`: 8.5%; `COc1cc(NC(=O)c2cc(Cl)c(OC)c(Cl)c2)ccc1NC(=O)c1ccco1`: 16.5%.

Turning to `O=C1C(Cl)=C(N2CCOCC2)C(=O)N1c1cccc(Cl)c1Cl`, the displacement is 11.1%.

As to `O=C(CCCN1C(=O)c2cccc3cccc(c23)C1=O)N1CCN(Cc2ccc3c(c2)OCO3)CC1`, the displacement worked out at 28.8%. Next, `CC(C)Cc1ccc(C(C)C(=O)NC(C)Cc2ccccc2)cc1` (stereo unspecified): -2.3%. Then `O=C(CSc1nc2ccc([N+](=O)[O-])cc2s1)NCC1CCCO1` (stereo unspecified), with 1%. `CC1=CC(C)(C)N(C(N)=S)c2cc(C)ccc21`: the displacement is -9.7%.

As to `Cc1cc2nc(-c3cc(NC(=O)c4ccco4)ccc3Cl)oc2cc1C`, the displacement is -6.9%. `Cc1cc(-c2ccccc2)nc2cc(C(N)=O)nn12`: the displacement is 24.5%. Then `CC(=O)N/C(=C\c1cccc([N+](=O)[O-])c1)C(=O)NC(C)C`, with 5.9%. Take `CCCCOc1ccc(NC(=O)c2cncc(Br)c2)cc1`: the displacement is 20.5%.

Consider `Cc1ccc(S(=O)(=O)Nc2cc(Sc3ncn[nH]3)c(O)c3ccccc23)cc1`, for which the displacement came to 19.5%.

For `Cc1cc(C)n(-c2cc(Oc3ccccc3)nc(-c3ccccc3)n2)n1`, the displacement is 0.3%. Next, `O=C(CCc1ccccc1)Nc1cc(C(=O)O)cc(C(=O)O)c1`: 10.2%.

On to `COC(=O)C1=CN(Cc2ccc(OC)cc2)C=C(C(=O)OC)C1c1ccc2c(c1)OCO2`, for which the displacement amounted to 1.8%. Next, `COc1cc(/C=C2/C(=O)NC(=O)N(c3cccc(F)c3)C2=O)ccc1OCc1ccc(C(=O)O)cc1`: -8%; `O=C1CC(SC(=NCc2ccc3c(c2)OCO3)Nc2ccccc2)C(=O)N1c1ccc(Cl)cc1` (stereo unspecified): -7.6%; `CCOC(=O)c1ccc(N=Cc2ccc(Br)s2)cc1`: 2.7%.

In the case of `COc1cc(C(=O)NCc2ccc(C)cc2)c([N+](=O)[O-])cc1OC`, the displacement amounted to 13.6%. Next, `COc1nc(-c2ccccc2)c[n+](C)n1`: 6.3%; `COc1cccc(C(=O)NC(NC(=S)Nc2ccc(Cl)cc2Cl)C(Cl)(Cl)Cl)c1` (stereo unspecified): 4.2%. Next, `O=C(CSc1nc(O)cc(=O)[nH]1)Nc1ccccc1`: 15.9%. On to `COc1ccccc1OCCSc1nc2ccccc2c(=O)[nH]1`, for which the displacement turned out to be 0.1%. Next, `CCc1cccc(NC(=O)CC(c2ccccc2)c2ccccc2)c1`: 5.7%; `N#Cc1cc2c(nc1SCc1ccc(Cl)cc1)CCCC2`: 4.5%. Next, `O=C(NCc1ccccn1)C(=O)Nc1ccc([N+](=O)[O-])cc1`: 11.7%; `Cc1ccccc1N(CC(=O)NC(C)(C)C)S(C)(=O)=O`: -1.1%. Next, `Cc1ccc(S(=O)(=O)Nc2ccccc2-c2nc3ccccc3c(=O)o2)cc1`: -0.8%; `COc1cc(=O)n(C)c2c(OCC(O)C(C)(C)O)cccc12` (stereo unspecified): -5.7%.

`Cc1c(Cl)cccc1NCCC(=O)c1ccc([N+](=O)[O-])cc1`: the displacement is -7.6%. `CC(=O)C1=C(O)C(=O)N(CCN(C)C)C1c1ccc([N+](=O)[O-])cc1` (stereo unspecified): the displacement is -1.6%. Next, `COc1cc2c(cc1OC)C(SC)=NC1(CCCC1)C2`: -11.1%; `COc1ccccc1NC(=O)c1cc(=O)[nH]c2ccccc12`: -3.9%.

`COc1ccc(N(CC(=O)Nc2ccc(C(=O)N3CCOCC3)cc2)S(=O)(=O)c2ccccc2)cc1`: the displacement is 15.2%. In the case of `COc1cccc(NC(=O)c2ccc(OC)c(Br)c2)c1`, the displacement is 2.4%.

As to `CCc1cc(=O)oc2cc(C)cc(OCC(=O)c3ccccc3)c12`, the displacement is 13.2%. Then `COc1cc(NC(=O)c2ccc3ccccc3c2)ccc1NC(=O)c1ccco1`, with 0.4%. Then `CCCCOc1ccc2c(=O)c(-c3ccccc3OC)coc2c1`, with 7%. Then `COc1ccccc1C(=O)Nc1nc2ccc(S(C)(=O)=O)cc2s1`, with -10.1%. For `CN(C)C(=O)CN1C(=O)C2CC=C(Cl)CC2C1=O` (stereo unspecified), the displacement worked out at 0.8%.

For `Cc1cc2c(cc1C)NC(c1ccc([N+](=O)[O-])o1)C1=C(CC(C)(C)CC1=O)N2` (stereo unspecified), the displacement is -2.5%. As to `CCOC(=O)c1sc(C)c2c(=O)[nH]cnc12`, the displacement came to 2.8%. Then `CC(C)(C)c1ccc(C(=O)Nc2ccc(Br)cn2)cc1`, with -16.9%; and `COc1ccccc1C1/C(=C(\O)c2ccc(F)cc2)C(=O)C(=O)N1CCCCCC(=O)O` (stereo unspecified), with -4.6%. For `COc1ccc(CNC(=O)COc2ccc3ccccc3c2)cc1`, the displacement was -22%. Next, `CCCCP(=O)(CCCC)COc1ccc(Br)cc1`: 18.1%; `CCONC(=NCc1ccccc1)c1nonc1N`: 9%. Then `COc1ccc(-c2nc(=S)c3c(n2-c2ccccc2)CCCC3)cc1`, with 7.2%; and `O=C(Nc1cc(Cl)cc(Cl)c1)C1COc2ccccc2O1` (stereo unspecified), with -3.6%. Next, `O=C(Nc1ccc(Br)cc1)c1nc2nc(-c3ccccc3)cc(C(F)(F)F)n2n1`: -9.3%; `NCCCCNc1ccc([N+](=O)[O-])cc1`: 16.6%; `O=C(c1cccs1)N1CCN(S(=O)(=O)c2ccc(Cl)cc2)CC1`: -2.9%. As to `Cc1ccc(NCCC(=O)c2cccc([N+](=O)[O-])c2)c(C)c1`, the displacement was -13.5%. Next, `Cc1c(NC(=O)c2ccc(Br)o2)cccc1-c1nc2ccccc2s1`: 7.1%; `COc1ccc(CN2CCN(C3CCN(Cc4ccccc4)CC3)CC2)cc1`: -17.8%; `O=C(Nc1nc2ccccc2n1Cc1ccc(Cl)cc1)c1ccccc1`: 14.7%.

For the molecule `CC(C)c1ccc(/C=C(\NC(=O)c2ccccc2)C(=O)NCCCn2ccnc2)cc1`, the displacement is 4.9%. Then `Cc1cccc(NC(=O)C2CC=CCC2C(=O)O)c1` (stereo unspecified), with 1.1%; and `COc1cc(CN2CCN(S(=O)(=O)c3ccccc3)CC2)cc(OC)c1OC`, with 5%; and `COc1ccc(C(=O)N/N=C/c2ccc(N(C)C)cc2)c(OC)c1`, with -2.6%.

For the molecule `COc1ccc(/C=C(\NC(=O)c2ccc([N+](=O)[O-])cc2)C(=O)NCCCN2CCOCC2)cc1`, the displacement worked out at 9.8%.

As to `COc1ccc(/C=C/C(=O)NCc2ccccn2)cc1OC`, the displacement was determined as 11.8%.

On to `Cc1cc(C=C2C(=O)NC(=S)NC2=O)c(C)n1-c1ccc(Br)cc1`, for which the displacement amounted to 21%. Next, `CC(=O)Nc1ccc(NS(=O)(=O)c2ccc3ncccc3c2)cc1`: 2.4%; `CCOc1cc(/C=N/NC(=O)Cc2cccc3ccccc23)cc(I)c1O`: 1.7%; `C=CCN1C(=O)/C(=C\c2ccc(OC(=O)c3ccc(Cl)cc3Cl)cc2)SC1=S`: 5.4%. Next, `COc1cccc(C(=O)O/N=C(\N)c2ccccc2)c1`: 12.2%.

On to `CCCCC1CCC(C(=O)Nc2ncccn2)CC1` (stereo unspecified), for which the displacement turned out to be 0.5%. Then `CCOC(=O)c1nn(-c2ccccc2)cc1O`, with -7.7%. Next, `CC1CCCN(C(=O)Cc2ccccc2)C1` (stereo unspecified): -9.7%; `CC(C)C(C(=O)O)N1C(=O)/C(=C/c2ccccc2C(=O)O)SC1=S` (stereo unspecified): -8.9%; `CC(=O)NC(C)c1ccc(Cl)c(Cl)c1` (stereo unspecified): 5.1%. Then `COC(=O)c1ccc(C(=O)OC)c(NC(=O)C(C)Oc2ccccc2)c1` (stereo unspecified), with 12.4%.
